# Source: the supplement of paper PMC4967469
# By IC50 is meant the dose at which the fit gives 50% viability; where the fit passes the top or lowest dose, that dose stands as a limit. AUC, from the same fit, is the share of area under the viability curve across the 256-fold dose range; it is 1 without any effect and falls as sensitivity rises. For part of these data: A top dose marked as inferred was calculated from the reported fits. For part of these data: Where an entry number is given, a second screen of the drug exists; the two often differ.
# Assays:
# Assay in all cases: Viability of human cancer cell lines after 72 h of drug (GDSC screen)
# Tamoxifen = compound: CC/C(=C(\c1ccccc1)c1ccc(OCCN(C)C)cc1)c1ccccc1 [Tamoxifen]; settings: top dose 5 µM
# Experimental: (§1)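 Human cancer cell lines in 384-well plates, medium with 10% serum, drug for 72 h over a 256-fold dose range (nine 2-fold or five 4-fold steps up to the top dose). Adherent lines were fixed and stained with the nucleic acid dye Syto60, suspension lines read with resazurin; signal relative to control wells, capped at 0 and 100%. One two-parameter sigmoid per drug and line, fitted in a mixed model over all curves with the slope shared within a line.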
# HG-5-88-01 = compound: COc1cc(N2CCC(C(N)=O)CC2)ccc1Nc1nc(N)c(Cl)c(Nc2ccccc2S(=O)(=O)C(C)C)n1 [HG-5-88-01]; settings: top dose 10 µM; top dose inferred
# Experimental: as §1
# NSC-87877 = compound: O=S(=O)(O)c1ccc2cc(N=Nc3cc(S(=O)(=O)O)c4cccnc4c3O)ccc2c1 [NSC-87877]; settings: top dose 16 µM; top dose inferred
# Experimental: as §1
# Elesclomol = compound: CN(NC(=O)CC(=O)NN(C)C(=S)c1ccccc1)C(=S)c1ccccc1 [Elesclomol]; settings: top dose 0.2 µM; top dose inferred
# Experimental: as §1
# BX-912 = compound: O=C(Nc1cccc(Nc2ncc(Br)c(NCCc3cnc[nH]3)n2)c1)N1CCCC1 [BX-912]; settings: top dose 10.24 µM; top dose inferred
# Experimental: as §1
# VNLG/124 = compound: CCCC(=O)OCc1ccc(OC(=O)/C=C(C)/C=C/C=C(C)/C=C/C2=C(C)CCCC2(C)C)cc1 [VNLG/124]; settings: top dose 5.12 µM; top dose inferred
# Experimental: as §1
# OSI-930 = compound: O=C(Nc1ccc(OC(F)(F)F)cc1)c1sccc1NCc1ccnc2ccccc12 [OSI-930]; settings: top dose 10.24 µM
# Experimental: as §1
# Masitinib = compound: Cc1ccc(NC(=O)c2ccc(CN3CCN(C)CC3)cc2)cc1Nc1nc(-c2cccnc2)cs1 [Masitinib]; settings: top dose 20 µM
# Experimental: as §1
# Bleomycin = compound: Cc1c(N)nc([C@H](CC(N)=O)NC[C@H](N)C(N)=O)nc1C(=O)N[C@H](C(=O)N[C@H](C)[C@@H](O)[C@H](C)C(=O)N[C@H](C(=O)NCCc1nc(-c2nc(C(=O)NCCC[S+](C)C)cs2)cs1)[C@@H](C)O)[C@@H](OC1OC(CO)C(O)C(O)C1OC1OC(CO)C(O)C(OC(N)=O)C1O)c1cnc[nH]1 [Bleomycin]
# Experimental: as §1
# LAQ824 = compound: O=C(/C=C/c1ccc(CN(CCO)CCc2c[nH]c3ccccc23)cc1)NO [LAQ824]; settings: top dose 1.024 µM; top dose inferred
# Experimental: as §1
# [1] = top dose 50 µM, screen: GDSC drug entry 1378, top dose inferred
# [2] = top dose 64 µM, screen: GDSC drug entry 190
Cell Line,AUC (Tamoxifen),IC50 (Tamoxifen),AUC (HG-5-88-01),IC50 (HG-5-88-01),AUC (NSC-87877),IC50 (NSC-87877),AUC (Elesclomol),IC50 (Elesclomol),AUC (BX-912),IC50 (BX-912),AUC (VNLG/124),IC50 (VNLG/124),AUC (OSI-930),IC50 (OSI-930),AUC (Masitinib),IC50 (Masitinib),AUC (Bleomycin; [1]),IC50 (Bleomycin; [1]),AUC (Bleomycin; [2]),IC50 (Bleomycin; [2]),AUC (LAQ824),IC50 (LAQ824)
"SK-MEL-30 (melanoma, adherent)",0.984,> 5 µM,0.978,> 10 µM,0.822,10 µM,0.754,0.0708 µM,0.96,> 10.2 µM,0.98,> 5.12 µM,0.981,> 10.2 µM,0.876,> 20 µM,0.648,8.21 µM,0.229,0.618 µM,0.44,0.0436 µM
"SK-MES-1 (lung squamous cell carcinoma, adherent)",0.979,> 5 µM,0.959,> 10 µM,0.971,> 16 µM,0.905,> 0.2 µM,0.92,> 10.2 µM,0.983,> 5.12 µM,0.927,> 10.2 µM,0.87,> 20 µM,0.685,10.9 µM,0.461,3.09 µM,0.442,0.0438 µM
"SK-MM-2 (myeloma, suspension)",0.986,> 5 µM,0.778,4.23 µM,0.979,> 16 µM,0.965,> 0.2 µM,0.915,> 10.2 µM,0.863,4.74 µM,0.966,> 10.2 µM,0.832,13.5 µM,0.979,> 50 µM,0.771,25.7 µM,0.155,0.00519 µM
"SK-N-AS (neuroblastoma, adherent)",0.982,> 5 µM,0.913,> 10 µM,0.982,> 16 µM,0.718,0.0576 µM,0.892,> 10.2 µM,0.984,> 5.12 µM,0.965,> 10.2 µM,0.931,> 20 µM,0.816,33.4 µM,0.978,> 64 µM,0.766,0.435 µM
"SK-N-DZ (neuroblastoma, adherent)",0.957,> 5 µM,0.953,> 10 µM,0.987,> 16 µM,0.839,0.133 µM,0.929,> 10.2 µM,0.984,> 5.12 µM,0.983,> 10.2 µM,0.971,> 20 µM,0.644,7.8 µM,0.888,> 64 µM,0.456,0.0485 µM
"SK-PN-DW (Ewing sarcoma, adherent)",0.938,> 5 µM,0.876,> 10 µM,0.944,> 16 µM,0.75,0.0677 µM,0.714,2.66 µM,0.977,> 5.12 µM,0.966,> 10.2 µM,0.861,17.9 µM,0.785,22.3 µM,0.283,0.944 µM,0.455,0.048 µM
